These results are taken from paper PMC12136788.

The chains are these.
B1: 104374691_104376647_723_CDS_ENSG00000139372_ENST00000392872|human|control|control (ssRNA)
RNA: GGGAGUUCUACAGUCCGACGAUCCCCUGGUAGAGUGUGAUCAUCCAUAUGGUUCAGCUGGACCUCACUGAGCCCUGACAUAAACAAACACUUCCAAAAAUGGUUUCCAGGUCCAGGGUAAUGAUGCCCUUUGUAAGCAGCCAUCAACAGAGGAUUGAGCAUCA
B2: chrX:71549762:71549763:+_ENSMUSG00000019087_ENSMUST00000019231|mus_mus|mus_mus_mus_hu_False|1_108 (ssRNA)
RNA: GGGAGUUCUACAGUCCGACGAUCAAAGUGUACCACUUCUUAUUGUUAGCACAACAUCACCAGAAAACGAUAACGACAGCCAAGCAGGACAGACAGUUAAGUAGUACUUCCACACUCCCAAACUCAGGGAGCCCUAUAGUUCAUCAACAGAGGAUUGAGCAUCA
B3: chr13:48664549:48664550:-_ENSG00000136146_ENST00000378586|hu_hu|motif|central (ssRNA)
RNA: GGGAGUUCUACAGUCCGACGAUCUGGUUUUCCUCUCCAGCCUGUAACAACUUUUGGUUUCUUGAAAUUGCCAGCAUUUCGGUAAGUUCCCACUCGAAGACGCAGCCAUUUUCCCCAGAGUCCCGCCACCGGCGCACGCGCAGACAACAGAGGAUUGAGCAUCA
B4: 56809451_56811643_435_CDS_ENSMUSG00000028431_ENSMUST00000030140|mouse|control|control (ssRNA)
RNA: GGGAGUUCUACAGUCCGACGAUCUUCCAGCUGCUGUGUGCUGAGAUUGCAGACUAUGACGUCCCCAGAGGCGGUGGCCACACACACAGAUUCCUGAUCCAGCAAGUCCUGAAUACCCACAAUGCAGCCACUUCCAUCCUCUGGCAACAGAGGAUUGAGCAUCA
B5: chr14:54894545:54894546:-_ENSG00000100528_ENST00000216416|hu_mus|FALSE|FALSE (ssRNA)
RNA: GGGAGUUCUACAGUCCGACGAUCCUUCAUUGGUGGCGUUUUGCAUGCACUUAACUGGACCGAUUCUUCUGUGUUGUUCUAAGAGCUCACCAGAACAUAGAUCAUGCCGUAUAGGUAGUAAAAAAACGCUAGAAGGUAAAAAGCCAACAGAGGAUUGAGCAUCA
B6: chr4:40210074:40210075:-_ENSMUSG00000036822_ENSMUST00000042575|mus_hu|FALSE|FALSE (ssRNA)
RNA: GGGAGUUCUACAGUCCGACGAUCUAUAGGACACUUAGAAUCAGGAGAUGCAUCAGCUGGUACUGUCUGUUGCAAUUUGCUAGUGCCAGCUUUAGGUGAAAAGUUGUCCAUUUUAAAUUCCUUAGCAGCUGAUGCCAUUAUCAUCAACAGAGGAUUGAGCAUCA
B7: 107987409_107987529_3908_3pUTR_ENSMUSG00000029461_ENSMUST00000049053|mouse|control|control (ssRNA)
RNA: GGGAGUUCUACAGUCCGACGAUCGGGAGGGGAAAAGGUGUGGACAAGGUGUCUGUGUAUGGUGAUGCCAGUGUGGCAGCUCAUGGUCAUGUGCACACCCCUCAUCCUAUGGUGAGGGGACCCUUCCAGCUCUGGCCUCCUCUGCAACAGAGGAUUGAGCAUCA
B8: 44657012_44657132_1561_3pUTR_ENSMUSG00000002028_ENSMUST00000002095|mouse|control|control (ssRNA)
RNA: GGGAGUUCUACAGUCCGACGAUCUUGCUCUAGAUCCAAAGCUUCUCUCAGACAUCGAAUACCGUCUGCUUCUCCUAUCAUUACUCUCAUUUUCUGGGGACUGGGAAAUAGGCAGUGGAGUAUGAACUUCGGGGGUAUUACUGCCAACAGAGGAUUGAGCAUCA
B9: chr1:220276048:220276049:+_ENSG00000067704_ENST00000302637|hu_hu|hu_hu_hu_mus_True|38_88 (ssRNA)
RNA: GGGAGUUCUACAGUCCGACGAUCGCAAAUUGCCUGGUUGGCGGGAAUCGUCCAAGGCUGGGUGGUCCAAACUAAAACGCUAACAGGGGAUGAGGCAUCUAUAAGAGACUCCAACUUCGGAGGAGGUCUCAGGAGGGGGAAUCUCAACAGAGGAUUGAGCAUCA
B10: chr1:169204414:169204415:-_ENSG00000143156_ENST00000367811|hu_hu|FALSE|FALSE (ssRNA)
RNA: GGGAGUUCUACAGUCCGACGAUCCACCAUGUCAUGAUAUUCGGUCACUACUCCUUUAUAAACUUCAUAGAAUUCCUCAACAUUAACCCGAUCCAUAUUGAACAUCUGCAUAGCUGAGAUUUCAAAACCUGCAUCUCGGAUAGCCAACAGAGGAUUGAGCAUCA
B11: chr7:116558156:116558157:+_ENSG00000198898_ENST00000458284|hu_hu|FALSE|FALSE (ssRNA)
RNA: GGGAGUUCUACAGUCCGACGAUCAAAAACUUUUAACCAUAAACUAGAAGAAUCAUCUCUUCAUUGUAAGAAAGAAAGGCCUAACAGAAAGACAUUUAAACUAAACUGAUUUUCAAUCCUCUUAGAACAAACAAAAUGAAAAAUCAACAGAGGAUUGAGCAUCA
B12: chr1:145439819:145439820:+_ENSG00000117289_ENST00000369317|hu_mus|FALSE|FALSE (ssRNA)
RNA: GGGAGUUCUACAGUCCGACGAUCUUUCUUUGCCUCUUGAGUUGGCUGGCUGGGGCGAUCGAGAAAAGCCUUCACCCAGUAGUCUACGCAACCAUAUUUUCCUUUAAAGGAUGUUCCCAGGGGCCCUUGAGGAAGCUCGAAGCCCAACAGAGGAUUGAGCAUCA
B13: 91406394_91406514_697_3pUTR_ENSG00000122482_ENST00000337393|human|control|control (ssRNA)
RNA: GGGAGUUCUACAGUCCGACGAUCGUGUUGACUUGCUUUCUGUGGUGUAGACAGCUGAAGAUCAGCUGCUACCUUCAAAGUUGAACAAGAUUCUGUUGUUGGCUGAUCCACAGGCUGUCCAGUGGUUAAUGAAACACUGCCUUUCAACAGAGGAUUGAGCAUCA
B14: chr1:55209531:55209532:+_ENSMUSG00000025979_ENSMUST00000162364|mus_mus|FALSE|FALSE (ssRNA)
RNA: GGGAGUUCUACAGUCCGACGAUCGUUAUCCUUCGACAUCAGAUUAUAUUUCAUCACAAAUUUGGUAAACCGAUGACAUAAAAAUGUUUCAUUUUCAUAUUCAUCAAAUAUCUGCCGGUGAUGAAAAUAGGCAUGUGAAAAUAUCAACAGAGGAUUGAGCAUCA
B15: chr12:114378518:114378519:+_ENSMUSG00000006356_ENSMUST00000084882|mus_mus|FALSE|FALSE (ssRNA)
RNA: GGGAGUUCUACAGUCCGACGAUCCCCGGAGUGAGGUGGCGUCCACAGGGAUCGCCCGAGGAUUCCAUGGCCACAUAGUGAUCUCUAGCUGUAGAACGGACUUGGGAUCCCCAGCUUUAGGUCUCGAGGUCCGGGCCUGCUCGUCAACAGAGGAUUGAGCAUCA
B16: chr15:59323432:59323433:+_ENSG00000157450_ENST00000557998|hu_hu|motif|central (ssRNA)
RNA: GGGAGUUCUACAGUCCGACGAUCCACAGUAUCAGAAUCUCCAAAAUGCAGACUAGAUGAAGGAGAAGAAAGACAAUCACGGAAAGAGGAAUCAUUAUCUUCAUCACUUGGUGUCCCUAGGUGUUGCCUCAGUCCUAAUAUUCCCAACAGAGGAUUGAGCAUCA
B17: 44688942_44689062_355_3pUTR_ENSMUSG00000002028_ENSMUST00000002095|mouse|control|control (ssRNA)
RNA: GGGAGUUCUACAGUCCGACGAUCCGCCUCCCCCGCCGCUCUCCCCAAACACUGCCCGGAACCGGCGCAGGUUGGUGCCGAUGGCGGCCGAGACCUGCAGCGCCGCGUCGAAGCCCGGGCCCACCCGGAGCAGGGCCGGCCCUGCAACAGAGGAUUGAGCAUCA
B18: chr4:76721835:76721836:+_ENSG00000138768_ENST00000264904|hu_mus|hu_hu_hu_mus_True|8_78 (ssRNA)
RNA: GGGAGUUCUACAGUCCGACGAUCGUUUGGCUGGGGUUUCUGAGACGCUCUGGAAUAAACUCAUGUUUUGCUAAUAAAUCCUAGUUUCUCUAUGAAAUUCUCUUUGCCAAUCCUCUUCUCUAUUAGUGUUUUAGCUUUCUCUUUCAACAGAGGAUUGAGCAUCA
B19: chr7:151048522:151048523:+_ENSG00000013374_ENST00000566856|hu_mus|hu_hu_hu_mus_True|38_108 (ssRNA)
RNA: GGGAGUUCUACAGUCCGACGAUCCUGCUUCUUAUUUAUUACGAUCUUGAUGUAAUUUUCUUGAAAUCCGAAAGUUUCAGCUAUUUGACACCUCAGGUCUCUGCCAGUGACAUGCAAGCGGGUCUCCAACAAGCUUUUCUUAUCCAACAGAGGAUUGAGCAUCA
B20: chr1:180251914:180251915:+_ENSMUSG00000026500_ENSMUST00000027781|mus_mus|motif|central (ssRNA)
RNA: GGGAGUUCUACAGUCCGACGAUCGAUCCUAAUGAGCCAUAGAGUAUAGAUUCUCGAGCACAUGGAGUGUUCUCAACAUCGGAAAUACCUAGGAGCUUGAAGGGCUUUUUCUCCGUCUCGUGGGGCUCCGGGGCGGCCGCCAUGCAACAGAGGAUUGAGCAUCA
B21: chr15:78834838:78834839:+_ENSG00000041357_ENST00000044462|hu_mus|FALSE|FALSE (ssRNA)
RNA: GGGAGUUCUACAGUCCGACGAUCAUCAAGAAGCUUGUGGAUGUUGCGCCUCUCCGCUGCAAGCAAAACUCCAUCAUUGGCUAAAAUCCCCAAACAGGUGCCUGCAUGUCCAAUGGCUUCCAUGGCAUACUCCACUUGGUAUAACAACAGAGGAUUGAGCAUCA
B22: chr1:93299114:93299115:+_ENSG00000122406_ENST00000370321|hu_hu|FALSE|FALSE (ssRNA)
RNA: GGGAGUUCUACAGUCCGACGAUCUUGUAUCACCAAGCGUUUCCGAGCAUAAUAAUCAGUUUUACCCUCUCGUCGUCUUCUAAAUUUCACUUGGUAUCUCUUAAAGUAGGCCUUAUUCUUAACAACUUUAACAAACCCCAUCCUCAACAGAGGAUUGAGCAUCA

The list shows a part of the results.

The target of the experiment is T1, UNK ZnF1-3 (human, UniProt Q9C0B0 31-174).
T1 sequence: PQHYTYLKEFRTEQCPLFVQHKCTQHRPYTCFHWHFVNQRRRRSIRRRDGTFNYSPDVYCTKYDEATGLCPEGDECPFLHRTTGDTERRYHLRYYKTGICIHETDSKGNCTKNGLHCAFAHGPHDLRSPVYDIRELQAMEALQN
Briefly: nsRBNS (natural sequence RNA bind-n-seq); RBNS binding buffer (assumed for nsRBNS): 25 mM Tris pH 7.5, 150 mM KCl, 3 mM MgCl2, 0.01% Triton X-100, 500 ug/ml BSA, 20 U/ml SUPERase-In, 4 C; UNK is unkempt and MSI1 is Musashi-1; names of the RNAs are library labels; protein concentration not given here; high values mean tight binding.
In turn, B1 registered a binding signal of 0.869 enrichment R.
The same measure for B2: 1.43 enrichment R; for B3: 1.32 enrichment R.
Then B4, with 0.813 enrichment R; and B5, with 1.42 enrichment R; and B6, with 0.556 enrichment R.
Turning to B7, the binding signal was 0.862 enrichment R.
Then B8, with 1.02 enrichment R; and B9, with 1.67 enrichment R; and B10, with 1.35 enrichment R.
The same measure for B11: 1.63 enrichment R; for B12: 1.13 enrichment R; for B13: 0.529 enrichment R.
Then B14, with 0.449 enrichment R.
For B15, the binding signal was found to be 0.585 enrichment R.
B16 came in with a binding signal of 1.53 enrichment R.
The same measure for B17: 0.681 enrichment R; for B18: 0.646 enrichment R.
Then B19, with 0.867 enrichment R; and B20, with 1 enrichment R; and B21, with 0.935 enrichment R.
Then B22, with 1.28 enrichment R.
